Results reported in the BET-seq Pho4 binding data (Le et al. 2018).
The other results are listed elsewhere or left out. These are noisy estimates, calculated here from bound and input reads.

Biological target: T1, Pho4 (S. cerevisiae) (UniProt P07270)
T1 sequence: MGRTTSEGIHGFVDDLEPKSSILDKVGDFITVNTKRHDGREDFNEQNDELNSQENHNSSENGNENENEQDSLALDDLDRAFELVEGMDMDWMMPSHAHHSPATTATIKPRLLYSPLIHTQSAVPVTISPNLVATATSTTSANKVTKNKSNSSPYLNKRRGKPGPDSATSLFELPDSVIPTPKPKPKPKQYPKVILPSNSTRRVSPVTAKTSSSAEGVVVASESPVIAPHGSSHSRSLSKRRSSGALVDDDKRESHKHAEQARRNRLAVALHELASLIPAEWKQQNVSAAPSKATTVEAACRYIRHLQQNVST
Experiment: relative binding free energy (BET-seq); higher = weaker binding
Settings: reference: library average

Sequence	relative binding free energy [kcal/mol]
GTCGACACGTGGAAGG	0.17
TAGATCACGTGGTGAT	0.04
CGTAGCACGTGGGTGA	-0.25
TTAAACACGTGTTATT	0.09
GTGTTCACGTGCTATT	0.28
AAGATCACGTGTATTT	0.19
GTGAGCACGTGGTGGC	-0.13
GGGTGCACGTGATTTA	0.2
AGTCTCACGTGAAGGA	0.35
GTGAACACGTGTCGTG	0.07
GAGCGCACGTGAGGGC	0.32
AGCATCACGTGTGTAT	0.17
TATGGCACGTGCGTAG	-0.22
GTGTGCACGTGCGGGG	-0.02
TTTGTCACGTGGCGCC	0.27
ATGGTCACGTGATTGC	0.19
TAAATCACGTGGTATT	0.11
AAATGCACGTGAGGCT	0.31
GCGAGCACGTGTGGTA	0.01
GTTGACACGTGGGACG	-0.03
CAGAGCACGTGGGTCG	-0.08
TGTCGCACGTGGCGGT	-0.21
AAGTACACGTGTTTGG	0.11
TATATCACGTGGAAGG	0.28
AATGACACGTGGAGTT	-0.01
GTTTGCACGTGGGGAC	-0.23

Sequence	relative binding free energy [kcal/mol]
GGTATCACGTGTTAGC	0.11
TGCGGCACGTGCTGTT	-0.22
AAGTGCACGTGAGATT	0.14
ATATTCACGTGGAATA	0.25
ATCGTCACGTGCAGTG	0.21
GCGTGCACGTGTTTTT	0.08
GGTTCCACGTGGAAGT	0.2
AATTACACGTGGGAGT	0.07
GTGATCACGTGAGCGT	0.24
CGCGGCACGTGGTGCG	-0.23
ATGGTCACGTGCATAT	0.03
GGGCGCACGTGGGGCT	-0.18
ATTGGCACGTGAGTTT	0.06
TTCTGCACGTGGGATT	-0.16
CTGATCACGTGCGTGT	0.08
GTCGTCACGTGATAGG	0.21
TTGTTCACGTGCACTT	0.16
ATCAGCACGTGTGGGC	0.1
AAGGGCACGTGGACAG	-0.1
TGTATCACGTGACTGG	0.34
GGTCCCACGTGGGTGT	-0.24
GTCTGCACGTGGATGG	0.02
TAGTTCACGTGTTAGC	0.36
GCTTACACGTGGGGCG	0.02
TAGCTCACGTGTTTGG	0.29
GTGTGCACGTGCGGTT	0.11

Sequence	relative binding free energy [kcal/mol]
TATAGCACGTGATTGG	0.08
TTATGCACGTGCAGGA	-0.1
TAAAACACGTGTTTTA	0.04
GGATTCACGTGTGAGA	0.34
CGGCGCACGTGGAGGG	-0.14
AAAAGCACGTGAGGGT	0.18
CGTGGCACGTGTAGCG	-0.06
GGGCCCACGTGGTGGA	-0.17
AAGGTCACGTGAGGTT	0.43
TTATTCACGTGATCTT	0.21
GTATGCACGTGGGATT	-0.07
TTTCACACGTGGTAGG	0.02
GATGGCACGTGGGTTA	-0.08
GTGCTCACGTGATTAG	0.29
TAAGCCACGTGTGATT	0.03
TTCGTCACGTGCATTT	0.08
AGTGTCACGTGGTGGG	0.06
GTGTGCACGTGATAAA	0.24
TGATTCACGTGATGTC	0.31
GAGAGCACGTGGTGCT	0.05
TTGGACACGTGGAGTG	0.03
ATGTTCACGTGGTTGC	0.24
AAGGTCACGTGTTCTA	0.11
GAGCGCACGTGAGGGA	0.21
TGTCGCACGTGTGATG	0.1
TTTCACACGTGAGGTG	0.41

Sequence	relative binding free energy [kcal/mol]
TGGTTCACGTGATCAG	0.39
GTTCGCACGTGATAGG	0.13
GTGTTCACGTGGATTG	0.27
AATGTCACGTGAAGGA	0.26
CGGAGCACGTGTAGAT	0.26
TGTATCACGTGTTGTG	0.11
CATTTCACGTGAAGTT	0.39
TGCGACACGTGGGGGA	-0.07
TATTCCACGTGCTGGT	0.01
ATGATCACGTGGTTAA	-0.01
TGGTTCACGTGTCGGT	0.28
TGGCTCACGTGTGCTG	0.26
GCTTGCACGTGGATGA	0.13
TTTTTCACGTGAGGCC	0.52
GCTATCACGTGTGGTT	0.09
GTTGACACGTGGGATG	0.07
TTGGCCACGTGAGATT	0.18
GTGCTCACGTGTAAGG	0.25
TTTTTCACGTGTGATT	0.33
AGGGGCACGTGTAGTA	-0.01
GTGCTCACGTGGTTGC	0.29
TATATCACGTGGAAAT	0.25
AAGGTCACGTGAGTGA	0.25
GATTTCACGTGTAAGA	0.38
AAACGCACGTGGTGGG	-0.25
TATTTCACGTGGAGGA	0.11

Sequence	relative binding free energy [kcal/mol]
GTTATCACGTGGAAGT	0.21
GGGTTCACGTGTCTCG	0.34
TTTAACACGTGTGCAG	0.06
TTGTACACGTGTTTCT	-0.01
GCGATCACGTGTAGGG	0.22
TGTGTCACGTGGAGCA	-0.09
TAAATCACGTGGCGGT	0.12
AGAGTCACGTGTGTGG	0.18
ACTGTCACGTGGGGAG	-0.13
CGTGTCACGTGGAGGA	-0.02
CTTGGCACGTGAAGGG	0.17
AACGACACGTGGGTAG	0
AAATTCACGTGAATAT	0.42
AGGTCCACGTGGGGAT	-0.12
GAGCTCACGTGGTCGT	0.44
TATTCCACGTGGGGGT	0.01
ATAAGCACGTGGCGCG	-0.02
CTTGTCACGTGGTTCG	0.05
GTTTACACGTGAATAT	0.42
GAAAGCACGTGTAGTT	0.03
TTCGCCACGTGGTTGG	-0.17
TGGTGCACGTGATGCA	0.07
GATATCACGTGGATGG	0.25
TGTCGCACGTGAAGGT	0.19
TGTCTCACGTGTAGAG	0.16
TGTTACACGTGTCGGC	0.26

Sequence	relative binding free energy [kcal/mol]
ATATACACGTGTTGGT	0.01
TTGGTCACGTGTGAAG	0.23
CCGGTCACGTGTGGTA	0.13
ATAAGCACGTGGATTT	-0.12
ATGTGCACGTGCTTGA	-0.07
CTTATCACGTGGTGTA	-0.02
TTGGACACGTGAAATG	0.22
GAGGGCACGTGATGGT	0.09
TGAGTCACGTGTTGGA	0.03
GGGTGCACGTGGATTC	0.21
ATTGGCACGTGAGCGC	0.06
GGTTACACGTGTATTG	0.04
ATGTACACGTGGCTGT	-0.02
GTGGTCACGTGGGTTA	0.01
ATTTTCACGTGTATGT	0.24
GGCCGCACGTGGGGGG	-0.17
TAGTGCACGTGTCAAG	0.05
GATTTCACGTGGTAAA	0.37
GGCAGCACGTGGTGAA	0
TGAACCACGTGGGTTT	-0.05
GAATACACGTGGAGTG	-0.06
AGTAGCACGTGTTAGT	-0.2
GGCGCCACGTGGGATG	-0.11
AGTGGCACGTGGTGCT	-0.25
TTCTTCACGTGGTTGT	0.32
CAGTTCACGTGTGAAT	0.38

Sequence	relative binding free energy [kcal/mol]
CAGGGCACGTGTTGGT	-0.06
CGTGACACGTGGGTCT	-0.08
ACTCTCACGTGGGGGT	0.11
TGGCACACGTGGCTTG	0.08
GGGGCCACGTGCGTGT	-0.14
CATGTCACGTGGTTAT	-0.02
ACTTGCACGTGGGTAA	-0.1
GTACGCACGTGGAATG	0.1
ATGTTCACGTGAGGTT	0.25
GGCGGCACGTGAGGCG	0.23
ATGTGCACGTGCATGG	-0.13
TTTGGCACGTGAGGCG	0.15
ATTTACACGTGGTATT	-0.03
AGGGGCACGTGTTTCG	-0.16
AGCTGCACGTGTTTGT	-0.03
AGTTGCACGTGATTGC	0.14
GGTTACACGTGTACTG	0.22
GCTGTCACGTGGTATT	0.12
ATTTGCACGTGTATCG	-0.04
TTTATCACGTGGTCTT	-0.01
ATGTGCACGTGATTCG	0.03
TTTTACACGTGGGCAA	-0.03
TGGTTCACGTGGATTT	0.43
ATGGACACGTGCTGGT	-0.02
GGGTCCACGTGTAAGG	0.06
TCTGGCACGTGTAGTC	0.01

Sequence	relative binding free energy [kcal/mol]
GTTGGCACGTGAGGAT	0.19
AAGGGCACGTGGTAGT	-0.15
TTGTGCACGTGTGATA	-0.07
CTATGCACGTGGGTGT	-0.33
GAGGTCACGTGATGCG	0.27
TCGATCACGTGGGAGG	0.21
GTCGTCACGTGAGTGA	0.3
CTCTTCACGTGTGGGG	0.27
GTGATCACGTGTGGAT	0.1
GAAGGCACGTGCGAGT	-0.04
GTGGGCACGTGAGTTG	0.22
CTGGGCACGTGTGGCG	-0.01
AGTATCACGTGGTAGG	0.07
ATTGACACGTGGGGCT	-0.17
AGAGACACGTGAAGTG	0.18
TGAGCCACGTGGTTCG	0.1
GGTTACACGTGAATGT	0.31
AACGACACGTGTTTGT	0.15
TGTGACACGTGGCATA	-0.05
TGTTACACGTGCCTTG	0.11
TAACTCACGTGTAGGT	0.19
GAGATCACGTGAGTTG	0.23
GATATCACGTGTAGGG	0.21
AATGTCACGTGGGACT	-0.13
GGTCACACGTGATAGG	0.17
ATTTGCACGTGGTATT	-0.02

Sequence	relative binding free energy [kcal/mol]
TGTCCCACGTGGGGTA	-0.15
TTATGCACGTGTTAGT	0.05
TTAGGCACGTGTTTGG	-0.11
AAGAGCACGTGGGGTA	-0.21
TGATGCACGTGTATGT	0.05
TCTATCACGTGATTAG	0.31
GTAGGCACGTGGGTCA	-0.23
TCGAGCACGTGGATTT	0.12
TGGTTCACGTGGCGGG	0.28
AGTAACACGTGAAGGG	0.22
TAGGTCACGTGAAATT	0.33
GGTGTCACGTGGGAGA	-0.04
GTCGTCACGTGGGAGG	0.09
TTGAACACGTGGAAGT	0.15
ATTTACACGTGGGAGG	0.15
GCGTGCACGTGTGAAT	0.22
TTTCTCACGTGGAGCG	0.37
ACTGGCACGTGTTAAG	0.02
ATGAGCACGTGAGGTC	0.18
AATATCACGTGGTGAG	0.14
GGTCTCACGTGTGGGT	0.27
GATTACACGTGGTATT	-0.11
